Measurements taken from PubChem BioAssay AID1345082 (National Center for Advancing Translational Sciences (NCATS), 2018).
Out of some 94,000 compounds screened, about 4,000 (4.3%) were called active. Inconclusive means that the source gave no clear call. Such entries were picked first, then a sample of the others. Calls come from the whole dose curve; as a rule, active = well fitted inhibition curve with a large enough effect; inconclusive = small, poorly fitted or top-dose-only effect; inactive = no such curve, though single readings can be large or run the other way. Potencies beside an inconclusive call are fits to weak or partial responses and may not hold up.

experiment: Cytotoxic Profiling in NIH 3T3 Cell Line of Diverse Libraries Using Quantitative High-Throughput Screening; settings: NIH 3T3 viability, CellTiter-Glo ATP luminescence, 48-72 h; series mostly up to 96.7 µM; note: nearly all actives have a fitted effect of over 55% in size
Summary of the method: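 Luminescent ATP readout (CellTiter-Glo, 10 min RT) after 48 or 72 hr compound exposure of NIH 3T3 cells seeded at 400 cells/well in 1536-well format; quantitative HTS.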
Potency is the fitted concentration of half-maximal effect; tags give direction and shape of the fitted curve.

Structure (SMILES)	Potency
O=C(NCc1ccccn1)c1ccc2nnc(C3CC3)n2c1	inactive
Cc1ccc2nc3n(c2c1)[C@@H](CNCc1ccc(C#N)cc1)COC3	inconclusive: 28.2 µM [inhibitor, full curve]
O=C(NCCOc1ccccc1)c1cnc2c(c1)N(C(=O)Cc1ccc(O)cc1)CCC2	inconclusive: 63.1 µM [inhibitor, partial curve, poor fit]
CN(C)C[C@@H]1CN(Cc2ccccc2)C[C@H]1N	inconclusive: 70.8 µM [inhibitor, single point]
COCCOc1cc(=O)n2c(c1C(=O)NCc1ccccc1)CCOCC2	inactive
COc1cccc(C(=O)NCCC2CCN(C(=O)Nc3ccc(C)c(F)c3)CC2)c1	inconclusive: 50.1 µM [inhibitor, partial curve, poor fit]
CC(=O)Nc1cccc(-c2ncc3c(n2)OCCN(CC2CC2)C3=O)c1	inconclusive: 20 µM [inhibitor, full curve, poor fit]
CSCCNC(=O)c1cc(-c2cccc(C(F)(F)F)c2)c2cccn2n1	inconclusive: 28.2 µM [inhibitor, partial curve, poor fit]
Fc1cc(F)cc(Cc2nc3nccc(-c4cccs4)n3n2)c1	inconclusive: 56.2 µM [inhibitor, partial curve, poor fit]
O=C(Nc1ccc2ncnc(N3CCCCC3)c2c1)c1cccc(Cl)c1	inconclusive: 44.7 µM [inhibitor, partial curve, poor fit]
CC(C)NC(=O)c1ccccc1OCC1CCCN(Cc2cn(C)c3ccccc23)C1 (stereo unspecified)	inconclusive: 50.1 µM [inhibitor, partial curve, poor fit]
CNC(=O)c1cccc(-c2cnc3[nH]cc(CC(=O)N4CCCC4)c3c2)c1	inconclusive: 50.1 µM [inhibitor, partial curve, poor fit]
CCN(CC)C(=O)c1coc(COc2ccc3c(c2)C(c2cccc(F)c2)N(C(=O)C(C)C)CC3)n1 (stereo unspecified)	inconclusive: 35.5 µM [inhibitor, partial curve]
O=C(NC1CCN(Cc2cccc(-c3ccc(F)cc3F)c2)CC1)c1ccncc1	inconclusive: 50.1 µM [inhibitor, partial curve, poor fit]
O=C1Nc2ccccc2CC12CCN(Cc1ccccc1)CC2	inactive
COc1ccc(-c2ccc(C(=O)NC3CC(c4cc(=O)[nH]c(N)n4)C3)o2)cc1 (stereo unspecified)	inconclusive: 63.1 µM [inhibitor, partial curve, poor fit]
COc1ccc(-c2cc(C(=O)NCc3ccc4c(c3)OCO4)c3cnn(C)c3n2)cc1	inconclusive: 44.7 µM [inhibitor, partial curve, poor fit]
CC(C)CCN1CCCC12Cc1ccccc1CNC2=O (stereo unspecified)	inactive
CN1CCc2c([nH]c3ccccc23)C12CCN(C(=O)c1ccc3ncccc3c1)CC2	inactive
CCCN1CCC2(CCN(C(=O)OC)CC2)Oc2ccccc21	inconclusive: 89.1 µM [inhibitor, partial curve, poor fit]
O=C(NCCCc1ccccc1)c1n[nH]c2c1CN(C(=O)c1ccccc1Cl)CC2	inconclusive: 31.6 µM [inhibitor, partial curve, poor fit]

Structure (SMILES)	Potency
Cc1noc(C)c1-c1nccc2c(=O)cc(N(C)C3CCOCC3)oc12	inconclusive: 100 µM [inhibitor, single point]
O=C(c1cnccn1)N1CCC(c2nc(C3CC3)no2)C1 (stereo unspecified)	inactive
C=CCCC(=O)N1CCC2(CC1)[C@@H](C(=O)OCC)[C@@H](O)C(=O)N2C	inconclusive: 70.8 µM [inhibitor, single point]
COc1cccc(CNC(=O)c2ccc3nc(-c4cccnc4)oc3c2)c1	inconclusive: 50.1 µM [inhibitor, partial curve, poor fit]
COCC1CCCN(Cc2nc(-c3ccccc3Cl)oc2C)C1 (stereo unspecified)	inactive
CCOC(=O)C1CCN(C(=O)C2COC3(CCCCC3)N2C(=O)c2ccccc2)CC1 (stereo unspecified)	inactive
COc1ccc(CNC(=O)c2cccc3c2CCN3C(=O)c2ccc(F)cc2)cc1	inactive
Cc1ccc(C)c(S(=O)(=O)N2CCCN(C)c3ccccc32)c1	inconclusive: 44.7 µM [inhibitor, partial curve]
O=C(Nc1ccc2c(N3CCOCC3)ncnc2c1)c1cccc(Cl)c1	active: 7.08 µM
CN1C(=O)COC[C@@H]1[C@H](O)c1ccc(NC(=O)c2ccc(F)c(Cl)c2)cc1	inactive
O=C1CC2(CCN(C(=O)C3CCCN3[S+](=O)([O-])c3cccs3)CC2)Oc2ccccc2N1 (stereo unspecified)	inactive
CCCCCC(=O)Nc1nc2c(s1)C[C@@H]1[C@](C)(CO)[C@H](O)CC[C@@]1(C)[C@@H]2CC(=O)N1CCCCC1	inconclusive: 70.8 µM [inhibitor, single point]
CCCCCNc1ncnc2c1CN(c1ccc(Cl)cc1)C(=O)CN2C	inconclusive: 44.7 µM [inhibitor, partial curve, poor fit]
O=C(Cc1cn2ccsc2n1)NC1CC(c2nnc(CO)n2C2CC2)C1 (stereo unspecified)	inactive
COc1ccccc1C(=O)N1CCC2(CC1)CC(=O)c1ccccc1O2	inconclusive: 63.1 µM [inhibitor, partial curve, poor fit]
COc1ccc(NC(=O)N2CCOc3ccc(CN4CCc5ccccc5C4)cc3C2)cc1	inconclusive: 44.7 µM [inhibitor, partial curve, poor fit]
COc1ccc(CN(C)C2CCCc3ccccc32)cc1 (stereo unspecified)	inconclusive: 100 µM [inhibitor, partial curve, poor fit]
Cc1noc2c(N3CCNC(=O)C3)cc(-c3cccc(C(F)(F)F)c3)nc12	inconclusive: 20 µM [inhibitor, partial curve, poor fit]
COc1ccccc1C(=O)N1CCC2(CC1)CC(=O)c1ccc(Cl)cc1O2	inconclusive: 50.1 µM [inhibitor, partial curve, poor fit]
COc1ccc(C(=O)N2CCC3(C2)C(=NC2CCCCC2)NC(=O)N3c2cccc(OC)c2)cc1 (stereo unspecified)	inconclusive: 70.8 µM [inhibitor, single point]
